Some of the results follow.

Experimental findings from the antibiotic and cytotoxicity screens of Wong et al. (2023) are described below.

Experiment [1] deals with HSkMC (human skeletal muscle cells). The experiment in a line: cytotoxicity call (relative viability < 0.9). The conditions noted are these: 10 µM.
In experiment [2] the test system is HepG2. Briefly: cytotoxicity call (relative viability < 0.9). The conditions noted are these: 10 µM.
Experiment [3] deals with S. aureus RN4220. The experiment in a line: growth inhibition call (relative growth <= 0.2). The conditions noted are these: 50 µM.

In the case of `C[C@@H]1CN([C@H](C)CO)S(=O)(=O)c2ccc(-c3ccc(C(=O)N(C)C)cc3)cc2O[C@@H]1CN(C)C(=O)C1CCOCC1`, the cytotoxicity call in experiment [1] and in experiment [2] was “inactive” in each case. Besides, in experiment [3], the growth inhibition call was “inactive”.

`Cc1noc(C)c1S(=O)(=O)Nc1ccc2c(c1)C(=O)N([C@H](C)CO)C[C@H](C)[C@H](CN(C)S(=O)(=O)c1ccccc1)O2`: the cytotoxicity call in experiment [1] and in experiment [2] was “inactive” each time. The growth inhibition call in experiment [3] was “inactive”.

Turning to `C[C@H]1CN([C@@H](C)CO)C(=O)Cc2cc(NS(=O)(=O)c3cn(C)cn3)ccc2O[C@H]1CN(C)Cc1ccc(C(=O)Nc2ccccc2N)cc1`, the cytotoxicity call in experiment [1] and in experiment [2] was “inactive” each time. In experiment [3], the growth inhibition call was “inactive”.

`C[C@H]1CN([C@@H](C)CO)C(=O)c2cc(NC(=O)Nc3ccccc3)ccc2O[C@H]1CN(C)Cc1ccc(-c2ccccc2)cc1`: the cytotoxicity call in experiment [1] and in experiment [2] was “inactive” in each case. For the same compound, in experiment [3], the growth inhibition call was “inactive”.

`CCCCC/C=C/C=C1/C(=O)C=C[C@@H]1C/C=C\CCCC(=O)O`: the cytotoxicity call in experiment [1] and in experiment [2] was “inactive” each time. For the same compound, the growth inhibition call in experiment [3] was “inactive”.

Regarding `Cn1ncc2c1CCCC2=O`, the cytotoxicity call in experiment [1] and in experiment [2] was “inactive” throughout. For the same compound, the growth inhibition call in experiment [3] is “inactive”.

`C=CC[C@@H](CC(=O)NCCO)C(=O)N[C@@H](COC(=O)[C@@H](CC=C)CC(=O)OC(C)(C)C)Cc1c[nH]c2ccccc12`: the cytotoxicity call in experiment [1] and in experiment [2] was “inactive” each time. Moreover, in experiment [3], the growth inhibition call is “inactive”.

Regarding `CCCCCCCCNC[C@@H](O)[C@H](O)[C@@H](O)[C@@H](O)CO`, the cytotoxicity call in experiment [1] and in experiment [2] was “inactive” throughout. The growth inhibition call in experiment [3] was “inactive”.

Consider `COc1ccc(S(=O)(=O)N(C)C[C@@H]2Oc3ncc(-c4ccc(F)cc4)cc3C(=O)N([C@H](C)CO)C[C@@H]2C)cc1`, for which the cytotoxicity call in experiment [1] and in experiment [2] was “inactive” throughout. The growth inhibition call in experiment [3] is “inactive”.

As to `C[C@@H]1CN([C@@H](C)CO)C(=O)c2cccc(NS(=O)(=O)c3ccc(Cl)cc3)c2O[C@@H]1CN(C)Cc1ccc(C(=O)Nc2ccccc2N)cc1`, the cytotoxicity call in experiment [1] is “inactive”. The cytotoxicity call in experiment [2] was “active”. Moreover, the growth inhibition call in experiment [3] was “inactive”.

On to `Cn1cnc(S(=O)(=O)N2C[C@@H](O)COC[C@@H]3O[C@H](CC(=O)NC4CCCC4)CC[C@H]32)c1`, for which the cytotoxicity call in experiment [1] and in experiment [2] was “inactive” each time. Moreover, the growth inhibition call in experiment [3] was “inactive”.

With `CC(C)C[C@@H](NC(=O)CCN)C(=O)O`, the cytotoxicity call in experiment [1] is “inactive”. In experiment [2], the cytotoxicity call is “active”. Besides, the growth inhibition call in experiment [3] is “inactive”.

Consider `CC(C)NC(=O)Nc1ccc2c(c1)C(=O)N([C@@H](C)CO)C[C@H](C)[C@@H](CN(C)Cc1ccc3c(c1)OCO3)O2`, for which the cytotoxicity call in experiment [1] and in experiment [2] was “inactive” throughout. In addition, the growth inhibition call in experiment [3] is “inactive”.

For the compound `C[C@@H]1CCCCO[C@@H](CN(C)C(=O)c2ccccc2)[C@@H](C)CN([C@H](C)CO)C(=O)c2cc(NC(=O)CCC(F)(F)F)ccc2O1`, the cytotoxicity call in experiment [1] and in experiment [2] was “inactive” in each case. In addition, the growth inhibition call in experiment [3] is “inactive”.

For the compound `C[C@@H]1CCCCO[C@H](CN(C)C(=O)c2ccccc2)[C@H](C)CN([C@H](C)CO)C(=O)c2cc(NS(=O)(=O)c3ccc(Cl)cc3)ccc2O1`, the cytotoxicity call in experiment [1] and in experiment [2] was “inactive” throughout. In addition, in experiment [3], the growth inhibition call is “inactive”.

Take `C[C@@H]1CCCCO[C@@H](CN(C)S(=O)(=O)c2ccccc2)[C@@H](C)CN([C@@H](C)CO)C(=O)c2cc(NC(=O)Nc3cccc4ccccc34)ccc2O1`: the cytotoxicity call in experiment [1] and in experiment [2] was “inactive” in each case. Also, the growth inhibition call in experiment [3] was “inactive”.

Regarding `C[C@H](CO)N1C[C@H](C)[C@H](CN(C)C(=O)Cc2ccccn2)Oc2ncc(C#CC3CCCC3)cc2C1=O`, the cytotoxicity call in experiment [1] and in experiment [2] was “inactive” throughout. Besides, in experiment [3], the growth inhibition call was “inactive”.

With `COC(=O)c1c(C)cc(O)cc1O`, the cytotoxicity call in experiment [1] and in experiment [2] was “inactive” throughout. In addition, in experiment [3], the growth inhibition call is “inactive”.

For `Cc1cc(C)c(S(=O)(=O)NCCO)cc1C`, the cytotoxicity call in experiment [1] and in experiment [2] was “inactive” throughout. In addition, in experiment [3], the growth inhibition call was “inactive”.

For `COC(=O)[C@H](Cc1ccccc1)N1CC2=C[C@@H](C3CC3)n3c(=O)n(C)c(=O)n3[C@H]2[C@@H]1[C@@H](O)CCn1cc(CCC(=O)NO)nn1`, the cytotoxicity call in experiment [1] and in experiment [2] was “inactive” in each case. Moreover, the growth inhibition call in experiment [3] was “inactive”.

As to `CC(C)NC(=O)N(C)C[C@@H]1Oc2c(NC(=O)Nc3ccc4c(c3)OCO4)cccc2C(=O)N([C@H](C)CO)C[C@H]1C`, the cytotoxicity call in experiment [1] and in experiment [2] was “inactive” each time. Moreover, the growth inhibition call in experiment [3] was “inactive”.

On to `C[C@@H]1CN([C@H](C)CO)C(=O)c2cccc(NC(=O)C3CCOCC3)c2O[C@@H]1CN(C)C(=O)Nc1ccccc1`, for which the cytotoxicity call in experiment [1] and in experiment [2] was “inactive” throughout. Moreover, the growth inhibition call in experiment [3] was “inactive”.

As to `COc1ccc(NC(=O)Nc2ccc3c(c2)C(=O)N([C@H](C)CO)C[C@H](C)[C@@H](CN(C)C(=O)Nc2ccccc2)OCCCC[C@H](C)O3)cc1`, the cytotoxicity call in experiment [1] and in experiment [2] was “inactive” each time. The growth inhibition call in experiment [3] was “inactive”.

Consider `COCCOC(=O)N1C(=O)[C@@]2(c3cc(C#Cc4ccc(OC)cc4)ccc31)[C@H](c1ccc(OCCO)cc1)N1[C@H](c3ccccc3)[C@H](c3ccccc3)OC(=O)[C@H]1[C@@H]2C(N)=O`, for which the cytotoxicity call in experiment [1] and in experiment [2] was “inactive” each time. Besides, in experiment [3], the growth inhibition call was “inactive”.

Consider `C[C@@H]1CN([C@H](C)CO)C(=O)c2cc(NC(=O)c3ccncc3)ccc2O[C@@H](C)CCCCO[C@H]1CN(C)C(=O)Nc1ccc(F)cc1`, for which the cytotoxicity call in experiment [1] and in experiment [2] was “inactive” throughout. For the same compound, in experiment [3], the growth inhibition call is “inactive”.

On to `CCCC(=O)Nc1ccc2c(c1)C(=O)N(C)C[C@@H](OC)[C@H](C)CN(Cc1ccc(-c3ccccn3)cc1)[C@H](C)CO2`, for which the cytotoxicity call in experiment [1] and in experiment [2] was “inactive” throughout. Further, the growth inhibition call in experiment [3] is “inactive”.
